Measured values: paper PMC4336329 (PLoS ONE, 2015)
Among all 310,000 compounds or so, about 14,000 (4.5%) showed an effect of 50% or more. Effects have a minus sign here. The list shows a part of the results.

biological target: human ether-à-go-go-related gene (hERG) potassium channel (human, UniProt Q12809); test: primary screen, population patch clamp on CHO cells stably expressing hERG
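Further: peak tail current of the secondary pulse compared with the same well before compound.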

Sequence of human ether-à-go-go-related gene (hERG) potassium channel (Q12809 whole entry, looked up): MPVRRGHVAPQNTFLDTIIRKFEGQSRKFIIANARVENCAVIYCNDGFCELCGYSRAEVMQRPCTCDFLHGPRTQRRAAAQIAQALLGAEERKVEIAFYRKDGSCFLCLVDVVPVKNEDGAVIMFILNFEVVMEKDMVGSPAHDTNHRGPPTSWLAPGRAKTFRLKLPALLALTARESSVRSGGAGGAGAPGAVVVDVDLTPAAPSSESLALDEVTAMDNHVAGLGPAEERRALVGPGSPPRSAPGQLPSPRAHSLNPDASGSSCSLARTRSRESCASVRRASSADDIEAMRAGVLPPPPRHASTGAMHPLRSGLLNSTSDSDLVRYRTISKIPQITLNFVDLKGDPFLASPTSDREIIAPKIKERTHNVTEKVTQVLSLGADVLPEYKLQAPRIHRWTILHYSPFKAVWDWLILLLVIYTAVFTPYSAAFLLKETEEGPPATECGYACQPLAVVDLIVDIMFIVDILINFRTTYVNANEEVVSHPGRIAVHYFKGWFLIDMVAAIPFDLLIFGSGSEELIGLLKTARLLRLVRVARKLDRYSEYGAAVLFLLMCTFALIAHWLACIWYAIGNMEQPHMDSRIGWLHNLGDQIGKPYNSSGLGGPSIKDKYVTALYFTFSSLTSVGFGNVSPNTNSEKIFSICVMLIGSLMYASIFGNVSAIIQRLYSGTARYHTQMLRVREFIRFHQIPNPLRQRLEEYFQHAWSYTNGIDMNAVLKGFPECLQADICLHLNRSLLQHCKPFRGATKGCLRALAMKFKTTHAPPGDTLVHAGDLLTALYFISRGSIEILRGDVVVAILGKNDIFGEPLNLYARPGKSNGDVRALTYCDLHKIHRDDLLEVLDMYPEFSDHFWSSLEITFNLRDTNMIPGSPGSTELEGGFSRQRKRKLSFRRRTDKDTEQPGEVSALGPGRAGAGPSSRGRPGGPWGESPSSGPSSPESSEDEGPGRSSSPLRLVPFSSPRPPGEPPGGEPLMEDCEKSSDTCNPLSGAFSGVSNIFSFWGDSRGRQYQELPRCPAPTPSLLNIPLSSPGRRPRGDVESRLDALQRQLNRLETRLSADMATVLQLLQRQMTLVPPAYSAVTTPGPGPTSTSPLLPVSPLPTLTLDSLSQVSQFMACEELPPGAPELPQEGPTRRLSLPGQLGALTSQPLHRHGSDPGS

| SMILES | hERG current change (%, negative = inhibition) at 10uM |
| --- | --- |
| COc1ccccc1NC(=O)CSc1nnnn1C1CCCCC1 | -33.6% |
| Cc1ccc2nc(N3CCN(Cc4ccc(F)cc4)C3=O)c(C)cc2c1 | -19.8% |
| O=C(NCc1ccc(F)cc1F)c1cc(COc2c(F)cccc2F)on1 | 34% |
| COc1ccc(C2NC(C(=O)O)Cc3c2[nH]c2ccccc32)cc1OC (centres unmarked) | 24.9% |
| COc1ccc(/C=N/Nc2cc(N3CCOCC3)nc(C)n2)c(OC)c1 | -4.66% |
| CC(=O)n1c2c(c3ccccc31)OC(N)=C(C#N)C2c1cccc(Cl)c1Cl.CCO (centres unmarked) | 13.2% |
| C#CCOCCOCCOCCNc1nc(N2CCN(C(=O)[C@H]([C@@H](C)O)n3cc(CCCC[NH3+])nn3)CC2)nc(N2CCN(C(=O)[C@H](Cc3ccc(O)cc3)n3cc(CCO)nn3)CC2)n1.[Cl-] | 3.04% |
| O=C(NCCc1c[nH]c2ccccc12)C1CCN(S(=O)(=O)c2ccc(F)cc2)CC1 | -28.3% |
| CCOc1cc(/C=C2/N=C(c3ccc(C(C)(C)C)cc3)OC2=O)cc(Cl)c1OS(C)(=O)=O | 3.92% |
| CCOC(=O)C(/C(C)=N/NC(=O)C1CC1c1ccccc1)C(C)C (centres unmarked) | -28.9% |
| CCOC(=O)C1CN(S(=O)(=O)c2ccc(OC)cc2)c2cc(CC(=O)OC)ccc2O1 (centres unmarked) | -19.2% |
| O=C(NC1CCCc2ccccc21)c1cccnc1 (centres unmarked) | 11.5% |
| C=CCc1cc(Cl)ccc1OCCN1CC(C)OC(C)C1.O=C(O)C(=O)O (centres unmarked) | -53.1% |
| Cn1c(=O)c2c(nc(SCC(=O)c3ccccc3F)n2C)n(C)c1=O | 1.17% |
| COc1ccc(-c2cc3cccc(OC)c3oc2=O)cc1 | 8.7% |
| Cc1ccccc1NC(=O)OCc1ccccc1 | -6.69% |
| COc1ccc(C(=O)c2ccccc2)c2c(O)ccc(C(=O)c3ccccc3)c12 | 22.3% |
| CC(=O)CCc1oc2ccc(C)cc2c1Cc1ccccc1 | 10.4% |
| Cc1noc(C)c1S(=O)(=O)N1CCC(C(=O)NCCc2ccc(S(N)(=O)=O)cc2)CC1 | 5.23% |
| O=C1OCCC1NC1=NCCC1 (centres unmarked) | -1.82% |
| Nc1nncn1C(=O)CCCOc1ccc(Cl)cc1Cl | -2.23% |
| Cc1ccc(Nc2nnc(SCC(=O)c3cc4ccccc4o3)s2)cc1C | 8.51% |

| SMILES | hERG current change (%, negative = inhibition) at 10uM |
| --- | --- |
| CCC(=O)NC(=S)Nc1ccc(-c2nc3ccccc3s2)cc1 | -2.92% |
| COc1ccccc1-n1nnnc1SCC(=O)NCC1CCCO1 (centres unmarked) | 0.846% |
| COc1ccc(-c2cc(=O)oc3c(C)c(OCC(=O)N(C)C)ccc23)cc1 | -15.9% |
| Cc1cc(OCC(=O)NCC2CCC(C(=O)O)CC2)c2c(C)c(C)c(=O)oc2c1 (centres unmarked) | 20.7% |
| Clc1ccccc1/C=N/NC1=Nc2cccc3cccc1c23 | 27.2% |
| Cc1ccsc1/C=N/Nc1nc(=O)[nH]nc1C | 4.53% |
| Cc1cccn2c(=O)c(C=Nc3ccccc3)c(NCc3ccco3)nc12 | 4.13% |
| O=C(NO)c1ccc(OC(F)F)cc1 | 7.91% |
| COCC(=O)NC1CC(C)(C)Cc2c1cnn2-c1ccc(F)cc1 (centres unmarked) | -64.9% |
| Cc1cc2ccccc2n2c(SCC(=O)NCC3CCCO3)nnc12 (centres unmarked) | 2.84% |
| COc1ccc(NC(=O)CN2C(=O)NC(C)(C3CC3)C2=O)cc1S(=O)(=O)N1CCCCC1 (centres unmarked) | 9.03% |
| O=C(CCOc1ccc(F)cc1)Nc1nccs1 | 15.1% |
| Cc1c(Cl)cccc1N=Cc1ccc([N+](=O)[O-])s1 | 10.1% |
| COc1ccc(C(=O)N2CCN(S(=O)(=O)N3CCOCC3)CC2)cc1OC | 11.2% |
| O=C(O)c1ccn(COc2ccc(Br)cc2)n1 | 11.9% |
| Cc1ccc(C(=O)N2CCN(c3ccc(NC(=O)c4cc(C)cc(C)c4)cc3)CC2)cc1 | -4.62% |
| C=CCC1=C/C(=C\c2c(N)n3nc(CC(=O)N4CCCC4)sc3nc2=O)C=C(OC)C1=O | 16.8% |
| CCOC(=O)c1[nH]c(C)c(C(=O)OCC(=O)N2c3ccccc3CC2C)c1C (centres unmarked) | -0.0968% |
| CN(CCO)c1ccc([N+](=O)[O-])cc1C(=O)O | -7.72% |
| COc1cccc(CNS(=O)(=O)c2ccc3c(c2)NC(=O)CS3)c1 | 2.05% |
| COc1ccc(S(=O)(=O)NCCc2nnc3ccc(SCc4cccnc4)nn23)cc1 | 12.3% |
| Cc1ccc(NC(=O)CN(C)CC(=O)Nc2c(C)cccc2C)c(Br)c1 | 1.94% |

| SMILES | hERG current change (%, negative = inhibition) at 10uM |
| --- | --- |
| COc1ccc(CCNC(=O)C2CCN(S(=O)(=O)c3ccc4nc5c(c(C(=O)O)c4c3)CCCC5)CC2)cc1OC | 1.65% |
| COc1nccnc1NS(=O)(=O)c1ccc(NC(=S)NC(=O)c2ccc(F)c(F)c2)cc1 | -15% |
| Cc1ccc(CS(=O)(=O)Cc2ccc(C(=O)NCCc3ccccc3)o2)cc1 | -14.4% |
| O=C(Nc1ccc(Oc2cccnc2)cc1)c1ccc([N+](=O)[O-])cc1 | -2.81% |
| O=C(CSc1ccc(-c2ccccn2)nn1)N1CCCC1 | 6.44% |
| CCOc1cc(/C=C2\SC(=Nc3ccc(F)cc3)N(c3ccc(F)cc3)C2=O)ccc1OCC(=O)O | 16.9% |
| C=CCc1cc2c(oc(=O)c3ccccc32)c(C)c1O | 10.7% |
| CCC(C)NC(=O)CNC(=S)N(Cc1ccccc1)Cc1cccnc1 (centres unmarked) | -16.2% |
| NC(=O)c1ccsc1NC(=O)Cc1ccc([N+](=O)[O-])cc1 | -42.7% |
| Cc1cccc(Nc2nnc(SCC(=O)Nc3ncc(C(F)(F)F)cc3Cl)s2)c1C | -7.53% |
| CCC1(c2ccccc2)ON(c2c(Br)cccc2Br)C1=O (centres unmarked) | 20.5% |
| CCOc1ccc(-c2ccc(C=O)o2)c([N+](=O)[O-])c1 | -19.7% |
| CCCCC(=O)Nc1sc(C(=O)N(CC)CC)c(C)c1C(=O)OC | -9.07% |
| O=C(NCc1ccccc1)C1=C[C@@H](C2CCCCC2)C[C@@H](OCCCCO)O1 | 5.44% |
| CCc1cccc(NC(=O)CCS(=O)(=O)c2cc3c(cc2C)NC(=O)CO3)c1 | -14.1% |
| CCN(C(=O)COC(=O)/C(=C/c1ccccc1)n1nnnc1C)C1CCCCC1 | -4.63% |
| Cc1nc(C)c(C(=O)Nc2ncc([N+](=O)[O-])s2)o1 | 20% |
| CN1C(=O)CSC1=Nc1ccc(F)cc1 | 22.5% |
| O=C1COc2ccc(S(=O)(=O)N3CCc4ccccc43)cc2N1 | -12.3% |
| O=C(NCCCO)C(=O)NCc1ccncc1 | 23.9% |
| CCCc1[nH]n(-c2nc3ccccc3s2)c(=O)c1C=NCC(C)C | -75.4% |
| COc1ccc(C(=O)NCc2ccc3[nH]c(C)cc3c2)cc1OC | 22.2% |

| SMILES | hERG current change (%, negative = inhibition) at 10uM |
| --- | --- |
| Cc1ccc(CN2C(=O)CCSc3ccc(Cl)cc32)cc1 | 4.52% |
| Cn1c(N2CCN(C(=O)Nc3ccc(F)cc3)CC2)nc2ccccc21 | -55.8% |
| CCCC(C(=O)NC(C)(C)C)N(Cc1ccccc1Cl)C(=O)c1snc(C(N)=O)c1N (centres unmarked) | 9.08% |
| CN1/C(=C\C(=O)c2ccco2)C(C)(C)c2ccccc21 | -15% |
| Cc1ccc(S(=O)(=O)c2ccc([N+](=O)[O-])cn2)cc1 | 0.594% |
| CCOc1ncccc1C(=O)Nc1cccc(S(=O)(=O)NC2=NCCC2)c1 | -6.34% |
| Cc1ccccc1NC(=O)CN1C(=O)S/C(=C\c2ccc(-c3cccc(C(=O)O)c3C)o2)C1=O | 23.7% |
| c1ccc(-c2cc3c(ccc4nonc43)nn2)cc1 | 10.1% |
| CCn1c(C)nc2cc(C(=O)N/N=C/c3cccc(OC)c3O)ccc21 | 22.6% |
| O=C(C1=C(O)C(=O)N(Cc2ccccc2)C1c1ccco1)c1ccco1 (centres unmarked) | 29.1% |
| Cc1cc(C)nc(NS(=O)(=O)c2ccc(NC(=O)c3cc4c(=O)n5cccc(C)c5nc4n3C)cc2)n1 | 15.9% |
| CC(C)=CC(=O)OCC(=O)Nc1cc([N+](=O)[O-])ccc1F | 0.461% |
| C=CCC1(C(=O)NCCO)CCN(C(=O)OC(C)(C)C)CC1 | 1.56% |
| COc1cccc(NC(=O)CCSc2nnc3scc(-c4ccccc4)n23)c1 | -0.933% |
| COc1cccc(NC(=O)CSc2nc(=O)n(CCN(C)C)c3c2CCCC3)c1 | -49.9% |
| CN(C)CCC(O)(c1ccccc1)c1ccccc1.Cl | -20.2% |
| CCn1c(C(=O)N2CCC(C(=O)NCCCSC3CCCCC3)CC2)cc2sccc21 | -31.3% |
| O=C(N=Nc1c(O)[nH]c2ccccc12)c1cccc(S(=O)(=O)Nc2ccccc2Cl)c1 | 1.88% |
| CCOC(=O)c1c(-c2ccccc2)oc2cc(Br)c(O)cc12 | 3.65% |
| COc1ccc(CCNC(=O)Nc2cc(F)c(F)cc2Cl)cc1OC | 11.2% |
